Experimental data: patent EP3335720A1, “C-DI-GMP BINDING PEPTIDES” (Universität Basel, priority 2016, dated 2018)
At least one peptide structure holds a part that was inferred or is arguable (an end, a ring closure or a residue). Ends that are not written are not given here. Peptide text beside a SMILES is read from it. * marks the point of attachment. FITC = O=C1OC2(c3ccc(O)cc3Oc3cc(O)ccc32)c2ccc(NC(=S)*)cc21

Tests used:
c-di-GMP [1] = assay: Binding affinity of peptides to c-di-GMP by isothermal titration calorimetry (ITC)
Experimental: Binding affinities of peptides to c-di-GMP were measured using isothermal titration calorimetry (ITC) on a VP-ITC MicroCalorimeter (MicroCal, Northampton, MA, USA). Peptides, c-di-GMP and buffer (50 mM Tris-HCl, pH 8.0, 100 mM NaCl) were degassed for 15 min prior to filling into sample cell and syringe. All experiments were carried out at a temperature of 15°C. The data were evaluated using ITC Data Analysis in ORIGIN provided by the manufacturer.

P. aeruginosa PAO1 cells = assay: Cell penetration, FACS based assay (flow cytometry of FITC-labeled peptides); conditions: 30 min, 37°C
P. aeruginosa PAO1 = assay: Fluorescence microscopy, localization of FITC-labeled peptides; format: cell-based; conditions: 10 mg/L, 30 min, 37°C; Figure 7
[2] = tested on: GMP, GTP, c-di-AMP, pGpG, 2'3'-cGAMP and 3'3'-cGAMP; assay: Specificity: binding of FITC-labeled peptide to related nucleotides by microscale thermophoresis (MST); conditions: Figure 4
P. aeruginosa (PAO1) = assay: P. aeruginosa growth in presence of peptides (growth curves); format: cell-based; conditions: 64 mg/L peptides, 37°C, MHB; Figure 10
Experimental: Growth curves were obtained by growing P. aeruginosa (PAO1) in 96-well plates (Falcon #353072) in presence of 64 mg/L peptides at 37°C with agitation in Mueller-Hinton II Broth (MHB) (BD #212322) using an Epoch 2 microplate reader (BioTek).

c-di-GMP [3] = assay: Binding of FITC-labeled peptide to c-di-GMP by microscale thermophoresis (MST); conditions: fitted, 50 mM Tris-HCl pH 8.0, 100 mM NaCl, 0.1% Tween 20
[4] = Table 2, peptides with different length, 15°C, 50 mM Tris-HCl pH 8.0, 100 mM NaCl, read-out: Dissociation constant
[5] = Table 2, peptides with different length, 15°C, 50 mM Tris-HCl pH 8.0, 100 mM NaCl

Work on “SKPREWVEAVAYVGPDRRRFNSADYKGPRKRKADAS [compound 1]” yielded a Kd (c-di-GMP [1]; [4]) of 110 nM.

DRRRFNSADYKGPRRRK [compound 10] was tested, and the Kd (c-di-GMP [1]; [4]) was 1710 nM.

DRRRFNSADYKGPRRRKADW [SEQ ID NO: 4] gave a Kd (c-di-GMP [1]; [4]) of 120 nM.

WDRRRFNSADYKGPRRRKAD [compound 5] gave a Kd (c-di-GMP [1]; [4]) of 160 nM.

“SKPREWVEAVAYVGPDRRRFNSADYKGPRRRKADAS [compound 2]” was tested, and the Kd (c-di-GMP [1]; [4]) was 100 nM.

DRRRFNSADYKGPRRR [compound 11] was tested, and the Dissociation constant (c-di-GMP [1]; [5]) was “no binding”.

For RRRFNSADYKGPRRR [compound 8], the Dissociation constant (c-di-GMP [1]; [5]) was “no binding”.

In the case of WVGPDRRRFNSADYKGPRRRKAD [compound 7], the Kd (c-di-GMP [1]; [4]) is reported as 120 nM.

Compound YVGPDRRRFNSADYKGPRRRKAD [compound 6] has a Kd (c-di-GMP [1]; [4]) of 130 nM.

For `C[C@H](NC(=O)[C@H](CO)NC(=O)[C@H](CC(N)=O)NC(=O)[C@H](Cc1ccccc1)NC(=O)[C@H](CCCNC(=N)N)NC(=O)[C@H](CCCNC(=N)N)NC(=O)[C@H](CCCNC(=N)N)NC(=O)[C@H](CC(=O)O)NC(=O)[C@H](CCCNC(=N)N)NC(=O)[C@H](CCCNC(=N)N)NC(=O)[C@H](CCCNC(=N)N)NC(=O)[C@H](CCCNC(=N)N)NC(=O)[C@H](CCCNC(=N)N)NC(=O)[C@H](CCCNC(=N)N)NC(=O)[C@H](CCCNC(=N)N)NC(=O)[C@H](CCCNC(=N)N)NC(=S)Nc1ccc2c(c1)C(=O)OC21c2ccc(O)cc2Oc2cc(O)ccc21)C(=O)N[C@@H](CC(=O)O)C(=O)N[C@@H](Cc1ccc(O)cc1)C(=O)N[C@@H](CCCCN)C(=O)NCC(=O)N1CCC[C@H]1C(=O)N[C@@H](CCCNC(=N)N)C(=O)N[C@@H](CCCNC(=N)N)C(=O)N[C@@H](CCCNC(=N)N)C(=O)N[C@@H](CCCCN)C(=O)N[C@@H](C)C(=O)N[C@@H](CC(=O)O)C(N)=O` [SEQ ID NO: 48] ({FITC}-RRRRRRRRDRRRFNSADYKGPRRRKAD-NH2), the Kd (c-di-GMP [1]; cell penetrating fusion peptides, read-out: Kd values) was 250 nM, the “FITC signals compared to FITC alone” value (P. aeruginosa PAO1 cells; 10 mg/L) was “about 7 fold” and the “localization of the peptides (FITC signal)” value (P. aeruginosa PAO1) was “strong FITC signal on the cell membranes”.

In the case of `C[C@H](NC(=O)[C@H](CO)NC(=O)[C@H](CC(N)=O)NC(=O)[C@H](Cc1ccccc1)NC(=O)[C@H](CCCNC(=N)N)NC(=O)[C@H](CCCNC(=N)N)NC(=O)[C@H](CCCNC(=N)N)NC(=O)[C@H](CC(=O)O)NC(=S)Nc1ccc2c(c1)C(=O)OC21c2ccc(O)cc2Oc2cc(O)ccc21)C(=O)N[C@@H](CC(=O)O)C(=O)N[C@@H](Cc1ccc(O)cc1)C(=O)N[C@@H](CCCCN)C(=O)NCC(=O)N1CCC[C@H]1C(=O)N[C@@H](CCCNC(=N)N)C(=O)N[C@@H](CCCNC(=N)N)C(=O)N[C@@H](CCCNC(=N)N)C(=O)N[C@@H](CCCCN)C(=O)N[C@@H](C)C(=O)N[C@@H](CC(=O)O)C(N)=O` [SEQ ID NO: 43, FITC-DRRRFNSADYKGPRRRKAD-NH2] ({FITC}-DRRRFNSADYKGPRRRKAD-NH2), the “binding of nucleotides closely related to c-di-GMP” value [2] is reported as “did not bind”, the “effect on bacterial growth” value (P. aeruginosa (PAO1)) is reported as “do not show an effect on bacterial growth” and the “peptide uptake (FITC signal), in words” value (P. aeruginosa PAO1 cells; 10 mg/L FITC-labeled peptide) is reported as “very weak or no peptide uptake”. It also gave a Kd (c-di-GMP [3]) of 790 nM.

For “WVEAVAYVGPDRRRFNSADYKGPRRRKAD [compound 3]”, the Kd (c-di-GMP [1]; [4]) was 150 nM.

RRRFNSADYKGPRRRKAD [compound 9] was tested, and the Kd (c-di-GMP [1]; [4]) was 1410 nM.
